Source: PubChem BioAssay AID1345083 (National Center for Advancing Translational Sciences (NCATS), 2018)
Screen size: about 94,000 compounds; about 6,200 (6.6%) were called active. This list was built around the results that the source calls inconclusive (neither active nor inactive); the mix of calls is not that of the screen. Calls come from the whole dose curve; as a rule, active = well fitted inhibition curve with a large enough effect; inconclusive = small, poorly fitted or top-dose-only effect; inactive = flat fitted curve, though single readings scatter. Where the call is inconclusive, the potency comes from a doubtful curve fit.

assay: Cytotoxic Profiling in HEK 293 Cell Line of Diverse Libraries Using Quantitative High-Throughput Screening; settings: HEK 293 viability, ATP luminescence (CellTiter-Glo), 48-72 h; series mostly up to 115 µM; note: nearly all actives have a fitted effect of over 60% in size
Procedure, shortened: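 ATP-coupled CellTiter-Glo luminescence served as viability read-out, recorded 10 min after reagent addition at room temperature. HEK 293 cells, 250 cells/well, had been incubated with pintool-transferred compound for 48 or 72 hr at 37 degree Celsius.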
Potency is the fitted concentration of half-maximal effect; tags give direction and shape of the fitted curve.

Row | Compound | Potency
1 | O=C(Nc1ccccc1)c1cnc2n1CCN(Cc1ccc3[nH]ccc3c1)CC2 | active: 100 µM
2 | Cc1ccc(CNC(=O)N2CCCCCCN(C)C(=O)[C@@H]3CCC[C@@H]32)cc1 | inconclusive: 79.4 µM [inhibitor, partial curve, poor fit]
3 | O=C(c1cccc(Br)c1)N1CCCN(c2ccnc3ccnn23)CC1 | inconclusive: 89.1 µM [inhibitor, partial curve, poor fit]
4 | CSCC(=O)N[C@H]1CCN2C(=O)c3cc(-c4cccc(C(F)(F)F)c4)ccc3NC(=O)[C@H]12 | inconclusive: 50.1 µM [inhibitor, partial curve, poor fit]
5 | CC(=O)NC1CCCN(Cc2cccc(-c3ccc(C)c(Cl)c3)c2)C1 (stereo not given) | active: 20 µM
6 | CCOC(=O)CN1CCCC1c1ccc(C(=O)NCCn2ccnc2)s1 (stereo not given) | inactive
7 | Cc1cc(C(=O)N2CCC3(CC2)CC(N(Cc2ccccc2)C2CC2)CCO3)n(C)n1 (stereo not given) | inconclusive: 39.8 µM [inhibitor, partial curve]
8 | COc1cccc(CNC(=O)c2nc3sccn3c2-c2ccc(F)cc2)c1 | inconclusive: 89.1 µM [inhibitor, single point]
9 | CN1CCC(N2CC[C@H](c3nnc(-c4ccccc4F)o3)C2)CC1 | inactive
10 | COc1ccc(CN2C(=O)[C@@H]3C[C@@H](O)CN3C3(CN(C(C)C)C3)C2=O)cc1 | inactive
11 | CC(Oc1ccccc1)C(=O)N1CC(Oc2ccc(-c3nc(-c4ccccc4)no3)cc2)C1 (stereo not given) | inconclusive: 15.8 µM [inhibitor, full curve, poor fit]
12 | O=C(c1cccc(F)c1)N1CCN(C(=O)c2nnn3c2COC(c2ccc(F)cc2)C3)CC1 (stereo not given) | inconclusive: 35.5 µM [inhibitor, partial curve, poor fit]
13 | NC(=O)CO[C@@H]1CO[C@H]2[C@@H]1OC[C@@H]2NC(=O)Nc1cccc2ccccc12 | inactive
14 | Cc1ccc(-c2cccc(CN3CCCC3C(=O)N3CCC(C#N)CC3)c2)cc1Cl (stereo not given) | active: 39.8 µM
15 | COc1ccc(CN2CCC3(CC(c4ccc(OC)cc4)=NO3)C2)cc1 (stereo not given) | inconclusive: 50.1 µM [inhibitor, partial curve, poor fit]
16 | COC1CN(C(=O)Nc2cccc(C#N)c2)CCC(=O)N(C)c2ccccc21 (stereo not given) | inactive
17 | Cc1cccc(-c2cn[nH]c2C2CCN(C(=O)c3ccc4nccnc4c3)CC2)c1 | inconclusive: 35.5 µM [inhibitor, partial curve, poor fit]
18 | C=CCc1ccccc1OCCN(C)Cc1cnc2ccccc2n1 | inconclusive: 100 µM [inhibitor, single point]
19 | O=C1N[C@@H]2CCN(C(=O)c3ccc(C(F)(F)F)cc3)[C@@H]2C(=O)N1c1ccc(Oc2ccccc2)cc1 | inconclusive: 70.8 µM [inhibitor, partial curve, poor fit]
20 | CN1CCCN(C(=O)c2cc(F)cc(F)c2)c2ccccc21 | inconclusive: 35.5 µM [inhibitor, partial curve, poor fit]
21 | O=C(c1ccn[nH]1)N1C[C@@H](COCC2CC2)[C@H](c2ccccn2)C1 | inactive
22 | O=C(NC1CCCN(c2cc(-c3ccc(Cl)cc3)[nH]n2)C1)c1ccncc1 (stereo not given) | active: 39.8 µM

Row | Compound | Potency
23 | Cc1ccc(-c2cc(N3CCCN(C(=O)c4sccc4C)CC3)n[nH]2)cc1C | inconclusive: 44.7 µM [inhibitor, partial curve, poor fit]
24 | O=C(c1cccc(F)c1)N1CCN(c2cc(-c3ccc(Cl)cc3)[nH]n2)CC1 | inconclusive: 31.6 µM [inhibitor, partial curve, poor fit]
25 | O=C(NCC1CCOCC1)C1CC(=O)N(c2n[nH]c3cccc(F)c23)C1 (stereo not given) | inactive
26 | COc1cccc(CN2CCCn3nc(C)c(-c4ccccc4[S+](C)(=O)[O-])c32)c1 | inconclusive: 79.4 µM [inhibitor, partial curve, poor fit]
27 | Cc1cccc(CNC(=O)c2ccc3c(c2)N(C)C2CCCCCN2C3=O)c1 (stereo not given) | inconclusive: 44.7 µM [inhibitor, partial curve, poor fit]
28 | O=C(CN1CC2CC(C1)[C@H]1CCCC(=O)N1C2)NCC1CC1 (stereo not given in full) | inactive
29 | O=c1cc(-c2cnccn2)oc2c(-c3cn[nH]c3)nccc12 | inactive
30 | COc1ccccc1CN1C(=O)COC[C@@H]1[C@H](O)c1ccc(NC(=O)c2ccccc2)cc1 | inconclusive: 44.7 µM [inhibitor, partial curve, poor fit]
31 | CCCNC(=O)NC[C@@H]1C=C(C)[C@H](Cc2nc3nc(OC)ccc3[nH]2)C[C@H]1C(C)C | active: 63.1 µM
32 | CC1=C(C(=O)Nc2ccccc2)C(c2cccc(C)c2)N2C(CC(=O)NCC(C)C)=CSC2=N1 (stereo not given) | inconclusive: 31.6 µM [inhibitor, partial curve]
33 | CCCCn1c(=O)c(C(=O)NC2CCCC2)nc2cccnc21 | inconclusive: 100 µM [inhibitor, partial curve, poor fit]
34 | O=C(NCc1ccccc1)NCC1Cn2cccc2C(=O)N1Cc1ccccc1 (stereo not given) | inconclusive: 89.1 µM [inhibitor, single point]
35 | O=C(NCc1ccccc1Cl)C1CCN(C(=O)c2ncn3c2COC(c2ccccc2)C3)CC1 (stereo not given) | inactive
36 | Cc1ccc(-c2noc([C@@H]3CCCN3C(=O)c3ccc(C)nc3)n2)cc1 | inactive
37 | CCO[C@H]1CN(C2CCN(c3ccc(C)c(Cl)c3)CC2)C[C@@H]1O | inconclusive: 56.2 µM [inhibitor, partial curve, poor fit]
38 | O=C(NCc1ccccc1)Nc1cnc2c(c1)CCC2 | inconclusive: 31.6 µM [inhibitor, full curve]
39 | COc1ccc(CN2CCCC3(Cc4ccccc4CNC3=O)C2)cc1 (stereo not given) | inactive
40 | O=C(c1cccnc1)N1CCC2(CC1)C(=O)NN=C2c1cccnc1 | inconclusive: 79.4 µM [inhibitor, partial curve]
41 | COc1ccc(-c2cc(C(=O)NCCCOC(C)C)c3cnn(C)c3n2)cc1 | inconclusive: 56.2 µM [inhibitor, partial curve, poor fit]
42 | COc1cccc(C(=O)NCCn2ccn3nc(-c4ccc(C)cc4C)cc3c2=O)c1OC | inconclusive: 50.1 µM [inhibitor, partial curve, poor fit]
43 | CC(C)CCN1CCc2ncc(C(=O)NCc3ccccc3)n2CC1 | inconclusive: 25.1 µM [inhibitor, full curve, poor fit]
44 | COC1CCC12CCN(C(=O)c1ccsc1)CC2 (stereo not given) | inactive

Row | Compound | Potency
45 | CC(C)NC(=O)c1nc(-c2ccc(Cl)cc2Cl)c2ccccn12 | inconclusive: 56.2 µM [inhibitor, partial curve, poor fit]
46 | CCN1c2cc(C(=O)Nc3ccc(Cl)c(C)c3)ccc2C(=O)N2CCCCC21 (stereo not given) | active: 15.8 µM
47 | O=C(Nc1ccc2ncnc(N3CCCCC3)c2c1)c1cncc(Br)c1 | inconclusive: 79.4 µM [inhibitor, single point]
48 | C#CCNC(=O)c1nc(-c2ccc(Cl)nc2)c2ccccn12 | active: 50.1 µM
49 | COCC(=O)N1CCCN(c2ccc3nnc(C4CC4)n3n2)CC1 | inactive
50 | O=C(c1ccccc1F)N1CCC2(C1)C(=NC1CCCCC1)NC(=O)N2c1cc(F)cc(F)c1 (stereo not given) | inactive
51 | O=C(CCc1ccccc1)Nc1cccc(-c2nnc3n2CCCC3)c1 | inconclusive: 44.7 µM [inhibitor, partial curve, poor fit]
52 | CCCc1cc(N2CCC(N3CC(Oc4ccccc4F)C3)CC2)nc(C)n1 | inconclusive: 56.2 µM [inhibitor, partial curve, poor fit]
53 | O=C1CCN(CC(O)C(F)(F)F)c2ccc(F)cc2CN1Cc1ccco1 (stereo not given) | inactive
54 | O=C(NCC1CC1)c1cccc(OC2CN(Cc3cc(F)c(F)c(F)c3)C2)c1 | inconclusive: 44.7 µM [inhibitor, partial curve, poor fit]
55 | CCc1cnc(N2CCC(COc3ccc4c(cnn4CC[S+](C)(=O)[O-])c3)CC2)nc1 | inconclusive: 11.2 µM [inhibitor, full curve]
56 | O=C1C2CN(Cc3cc(F)ccc3F)CCC2OCCN1CCc1ccccc1 (stereo not given) | inconclusive: 100 µM [inhibitor, partial curve]
57 | OC1(c2csc(CN3CCc4ccccc4C3)n2)CCNCC1 | inconclusive: 126 µM [inhibitor, partial curve, poor fit]
58 | COc1ccc(C2Cn3nnc(C(=O)N4CCN(C(=O)c5ccc(C)cc5C)CC4)c3CO2)cc1 (stereo not given) | inconclusive: 39.8 µM [inhibitor, partial curve, poor fit]
59 | COc1cc(Cl)ccc1C(=O)N1CCC(Cc2nc(C(C)C)no2)CC1 | inconclusive: 44.7 µM [inhibitor, partial curve, poor fit]
60 | OC1(c2csc(CN3CCN(c4ccccn4)CC3)n2)CCN(Cc2ccccc2)CC1 | inconclusive: 44.7 µM [inhibitor, partial curve]
61 | Clc1ccc(CN2CCOC[C@H](Oc3ccccc3)C2)cc1 | inactive
62 | CCOc1ccc2c(n1)CCN(C(=O)NC1CCCCC1)C2 | inconclusive: 70.8 µM [inhibitor, partial curve, poor fit]
63 | C#CCNC(=O)c1cn2cc(-c3cccc(C(F)(F)F)c3)sc2n1 | inconclusive: 44.7 µM [inhibitor, partial curve, poor fit]
64 | CCC[C@H](N)C(=O)N1CCC(c2cc(N3CCOCC3)nc(C)n2)CC1 | inconclusive: 79.4 µM [inhibitor, partial curve]
65 | O=C(O)CCC(=O)N1Cc2ccccc2CC2(CCCCN2CCc2ccccc2)C1 (stereo not given) | inactive
